Measurements published in paper PMC12647151 (Communications Biology, 2025).

Biological target: GST-ACTN1 (full-length human ACTN1 in pGEX-4T-1) (human, UniProt P12814 1-892)
Assay: pull-down

UniProt P12814, sequence (P12814 whole entry): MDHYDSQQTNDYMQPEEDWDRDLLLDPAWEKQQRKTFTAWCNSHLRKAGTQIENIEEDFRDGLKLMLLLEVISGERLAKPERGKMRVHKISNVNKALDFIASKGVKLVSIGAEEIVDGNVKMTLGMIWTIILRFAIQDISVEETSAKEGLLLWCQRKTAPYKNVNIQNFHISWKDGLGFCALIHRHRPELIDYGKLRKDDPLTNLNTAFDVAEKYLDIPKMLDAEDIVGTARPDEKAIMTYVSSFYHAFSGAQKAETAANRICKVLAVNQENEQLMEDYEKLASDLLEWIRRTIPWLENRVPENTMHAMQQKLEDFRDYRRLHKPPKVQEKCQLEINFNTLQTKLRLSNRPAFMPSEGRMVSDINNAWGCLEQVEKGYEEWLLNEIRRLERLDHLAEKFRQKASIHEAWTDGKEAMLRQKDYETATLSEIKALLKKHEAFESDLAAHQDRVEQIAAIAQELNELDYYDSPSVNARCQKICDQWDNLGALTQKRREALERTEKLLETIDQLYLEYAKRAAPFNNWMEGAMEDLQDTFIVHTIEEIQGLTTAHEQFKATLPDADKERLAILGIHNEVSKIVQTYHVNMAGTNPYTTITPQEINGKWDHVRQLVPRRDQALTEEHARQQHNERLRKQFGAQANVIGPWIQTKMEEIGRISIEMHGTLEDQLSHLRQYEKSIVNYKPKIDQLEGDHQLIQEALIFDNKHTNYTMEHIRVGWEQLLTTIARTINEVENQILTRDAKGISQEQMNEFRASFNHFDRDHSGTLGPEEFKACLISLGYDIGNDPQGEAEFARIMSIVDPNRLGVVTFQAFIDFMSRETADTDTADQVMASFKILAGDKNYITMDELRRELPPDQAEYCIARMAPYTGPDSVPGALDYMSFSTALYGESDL

B1: Human USP14 catalytic inactive mutant C114A bearing an N-terminal Flag tag, purified from E. coli (enzyme)
chain: not shown
- binding result: binds
